Assay results: publication PMC4336329 (PLoS ONE, 2015)
Out of some 310,000 compounds screened, about 2,200 (0.71%) showed an effect of 50% or more. The effect is printed as a negative number. The list shows a part of the results.

The molecules below were run against human ether-à-go-go-related gene (hERG) potassium channel (human, UniProt Q12809) (assay: primary screen, population patch clamp on CHO cells stably expressing hERG).
human ether-à-go-go-related gene (hERG) potassium channel, sequence (Q12809 whole entry, looked up): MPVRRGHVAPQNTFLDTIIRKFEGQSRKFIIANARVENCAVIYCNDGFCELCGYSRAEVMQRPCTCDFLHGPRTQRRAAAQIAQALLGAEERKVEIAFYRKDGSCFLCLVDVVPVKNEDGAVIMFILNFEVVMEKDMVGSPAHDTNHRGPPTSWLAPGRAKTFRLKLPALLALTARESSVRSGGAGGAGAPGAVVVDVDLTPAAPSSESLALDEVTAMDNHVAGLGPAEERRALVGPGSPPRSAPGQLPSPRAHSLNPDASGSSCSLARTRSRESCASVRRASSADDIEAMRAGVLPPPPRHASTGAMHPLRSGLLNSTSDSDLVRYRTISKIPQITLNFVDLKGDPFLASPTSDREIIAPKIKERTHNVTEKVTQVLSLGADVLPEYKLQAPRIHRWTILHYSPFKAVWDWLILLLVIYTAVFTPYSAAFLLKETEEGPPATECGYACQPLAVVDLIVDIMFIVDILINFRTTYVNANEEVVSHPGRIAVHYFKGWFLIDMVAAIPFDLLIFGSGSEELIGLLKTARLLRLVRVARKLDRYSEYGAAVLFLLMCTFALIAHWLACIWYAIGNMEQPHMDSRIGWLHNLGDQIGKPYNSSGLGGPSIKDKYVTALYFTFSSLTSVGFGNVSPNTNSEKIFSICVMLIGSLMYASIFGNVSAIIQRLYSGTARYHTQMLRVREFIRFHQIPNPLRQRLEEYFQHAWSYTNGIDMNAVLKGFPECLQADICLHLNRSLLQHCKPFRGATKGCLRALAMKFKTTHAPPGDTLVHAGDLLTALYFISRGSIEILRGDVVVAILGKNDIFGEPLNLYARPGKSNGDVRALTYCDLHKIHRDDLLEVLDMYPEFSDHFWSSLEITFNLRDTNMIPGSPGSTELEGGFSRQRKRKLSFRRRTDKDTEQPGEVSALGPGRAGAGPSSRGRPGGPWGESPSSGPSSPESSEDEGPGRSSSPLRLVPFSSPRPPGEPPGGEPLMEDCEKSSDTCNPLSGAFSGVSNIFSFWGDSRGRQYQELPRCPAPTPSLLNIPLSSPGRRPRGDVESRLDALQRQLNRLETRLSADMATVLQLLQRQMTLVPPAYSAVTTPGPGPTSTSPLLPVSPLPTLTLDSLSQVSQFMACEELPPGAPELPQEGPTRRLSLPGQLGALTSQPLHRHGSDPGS

Row | Compound | hERG current change (%, negative = inhibition) at 1uM [%]
1 | CC(C)(C)C(=O)C[n+]1ccc(C(N)=O)cc1.[Br-] | 8.03
2 | CCCCn1c(N)c(N(CCOC)C(=O)c2ccc(-n3c(C)ccc3C)cc2)c(=O)[nH]c1=O | 11.1
3 | C=CCn1c(SCC(=O)N2CCN(c3ccccc3)CC2)nnc1-c1ccco1 | 4.57
4 | Cc1ccc(S(=O)(=O)c2nc(S(C)(=O)=O)sc2N2CCC(O)CC2)cc1 | 12.9
5 | COc1ccc(N2CC(=O)N(c3ccccc3)C2=S)cc1 | 4.34
6 | CC(C)NC(=O)CN(Cc1ccc(F)cc1)C(=O)CCC(=O)Nc1nccs1 | 17.3
7 | CC1(NC(=S)Nc2ccccc2)CCS(=O)(=O)C1 (centres unmarked) | 13.1
8 | O=C(N=C1SC2CS(=O)(=O)CC2N1c1ccc(Cl)cc1Cl)C1CCCO1 (centres unmarked) | 1.53
9 | CCN=C(Nc1cccc(F)c1)SC1CC(=O)N(c2ccc(OC)cc2)C1=O (centres unmarked) | 11.8
10 | COc1cc(NC(=O)CSc2nnc3n2C(C)(C)Cc2ccccc2-3)cc(OC)c1 | 11.8
11 | CCS(=O)(=O)c1ccc(-c2cccc(NC(=O)c3ccco3)c2)nn1 | 6.44
12 | CCn1c(SCC(=O)Nc2oc(C)c3c(C)n[nH]c(=O)c23)nc2sc(C)c(C)c2c1=O | 3.98
13 | COC(=O)c1ccccc1NC(=O)COC(C)=O | 9.05
14 | CCC(C)(C(=O)NC1CCCCC1)N(C)C(=O)c1ccccn1 (centres unmarked) | 4.4
15 | COC(=O)c1ccc(/C=C/c2c(-c3ccsc3)oc3ccc(N4CCOCC4)cc23)cc1 | 13.4
16 | O=C(COc1ccccc1)NNc1c2ccccc2nc2ccccc12 | 4.4
17 | O=C1NNC(c2ccccc2)=N/C1=C\c1ccc(Cl)cc1 | 10.4
18 | O=C(NNC(=O)c1cccs1)c1cccc(F)c1 | 8.52
19 | Cl.NC12CC3CC(CC(C3)C1)C2 | 13.1
20 | C[C@H](NC(=O)C1CCN(S(=O)(=O)c2ccccc2)CC1)C(=O)NCc1cccc(C(F)(F)F)c1 | 15.2
21 | Cc1ccccc1C(=O)N=c1ccn(-c2nc3ccccc3nc2NS(=O)(=O)c2ccc(F)cc2)cc1 | 19.2
22 | Cc1[nH]n(-c2cccc(Cl)c2)c(=O)c1C=NCC(C)C | 0.286
23 | O=C(COc1ccc(S(=O)(=O)N2CCOCC2)cc1Cl)NCCCn1ccnc1 | 8.91

Row | Compound | hERG current change (%, negative = inhibition) at 1uM [%]
24 | CCS(=O)(=O)c1c(S(=O)(=O)CC)c2ccccn2c1C(N)=O | -9.01
25 | c1coc(C2Nc3cccc4cccc(c34)N2)c1 | 11.3
26 | COc1ccccc1NS(=O)(=O)c1cccc(C(=O)NNC(=O)c2ccc(O)c(Cl)c2)c1 | 8.8
27 | Cc1cccc(Cl)c1NC(=O)N1CCCN(c2ncccc2[N+](=O)[O-])CC1 | 5.84
28 | COc1ccc(CNC2CC(C)N(C)CC2C)cc1OC.Cl (centres unmarked) | 14.1
29 | O=C(Nc1ccncc1)Nc1ccc(Cl)cc1Cl | 17.4
30 | O=C(NCc1ccc(F)cc1)C(=O)NCC1OCCN1C(=O)c1ccc(Cl)cc1 (centres unmarked) | -9.59
31 | Cc1ccc(NC(=S)Nc2ncccc2C)c(C)c1 | 13.3
32 | CSc1cccc(NC(=O)c2ccco2)c1 | 4.34
33 | COc1ccc(OC)c(NC(=O)CSc2nnc(CCCO)n2-c2ccccc2)c1 | -13.6
34 | O=C(O)CC(CC(=O)N1CCOCC1)c1ccccc1 (centres unmarked) | 9.08
35 | CCCc1nn(C)c(C(=O)Nc2cccc(Cl)c2)c1Cl | 4.33
36 | COc1ccc(NC(=O)CN2C(=O)COc3ccc(S(=O)(=O)N4CCCCC4)cc32)cc1OC | 14.4
37 | O=C(COC(=O)Cc1cccc2ccccc12)Nc1ccccc1-c1ccccc1 | 8.5
38 | Clc1ccc2oc(-c3ccccc3)nc2c1 | 10.9
39 | CC(=O)NCCN1C(=O)S/C(=C\c2cccs2)C1=O | 4.24
40 | CCC(=O)Nc1nnc(SCC(=O)Nc2cccc(Cl)c2)s1 | -0.827
41 | CCOC(=O)CC(=O)Nc1nnc(C(C)C)s1 | 14.7
42 | O=C(CCC(=O)OCC(=O)c1ccc([N+](=O)[O-])cc1)Nc1ccccc1Cl | 5.57
43 | O=C(Nc1ccccc1F)C1CCCN(S(=O)(=O)c2ccccc2)C1 (centres unmarked) | 3.79
44 | Cc1nc2cccnc2nc1C | 4.49
45 | COc1ccc(-c2sc(Nc3ccccc3)n[n+]2-c2ccccc2)cc1Br.[Cl-] | 0.93
46 | CCOCCn1ccc2c(OCC(=O)Nc3ccc(OC)cc3OC)cccc2c1=O | 4.73

Row | Compound | hERG current change (%, negative = inhibition) at 1uM [%]
47 | NC(=S)NN=C1c2cc(OCCN3CCOCC3)ccc2-c2ccc(OCCN3CCOCC3)cc21 | 5.35
48 | O=C(COC(=O)c1ccccn1)NCc1ccc(Cl)cc1Cl | 7.97
49 | Cc1cccc(-c2noc(CCCC(=O)NC3CCCCC3)n2)c1 | 13
50 | CC(=O)Nc1ccc(C=C(C(C)=O)C(C)=O)cc1 | 8.31
51 | Cc1c(CC(=O)N2CCN(C(=O)C3COc4ccccc4O3)CC2)c(=O)oc2cc(O)cc(O)c12 (centres unmarked) | 22.6
52 | CCOc1ccc(N(CC(=O)NCc2ccco2)C(=O)CCC(=O)Nc2nccs2)cc1 | 2.24
53 | CC(C)c1ccc(NC(=O)Cn2nnc(C(=O)NCc3ccc4c(c3)OCO4)c2N)cc1 | 12.7
54 | Cc1cc(NC(=O)Cc2cccs2)nn1CC(=O)NCc1ccco1 | 10.3
55 | Cc1ccnc(NC(=O)c2ccccc2NC(=O)C(C)(C)C)c1 | 2.69
56 | NS(=O)(=O)c1ccc(CNC(=O)c2cccnc2Cl)cc1 | 7.64
57 | Cc1ccc(S(=O)(=O)N(C)C)cc1NC(=O)Nc1ccccc1F | 12.4
58 | O=C(O)c1cc(-c2ccco2)nc2cc3ccccc3cc12 | 15.5
59 | c1ccc(CN2CCN(C(c3ccccc3)c3nnnn3Cc3ccccc3)CC2)cc1 (centres unmarked) | 0.303
60 | CCCCn1nc(NC(=O)c2cccs2)c2cc3ccccc3nc21 | 10.5
61 | CC(=O)NC1C(=O)N=C(SCC(=O)NC(C)c2ccccc2)NC1=O (centres unmarked) | 18.8
62 | CCc1ccc(CNC(=O)c2ccc(OC3CCN(C(C)=O)CC3)c(OC)c2)nc1 | 16.5
63 | COC(=O)c1c(NC(=O)C2Cc3ccccc3C(=O)O2)sc2c1CCCC2 (centres unmarked) | 15.4
64 | CN(C)c1ccnc2sc(C(N)=O)c(N)c12 | 8.93
65 | Cc1cnc(C(=O)OCC(=O)Nc2c(Cl)cc(Cl)cc2Cl)cn1 | 15.4
66 | COc1cccc(OC)c1C(=O)Nc1ccc2nc(C)c(C)nc2c1 | 0.445
67 | COc1ccc(NC(=O)CCS(=O)(=O)c2ccc(OC)cc2)cc1 | 6.18
68 | O=C(COc1ccc(F)cc1)Nc1nc(-c2ccccn2)cs1 | 7.08
69 | CCOC(=O)CNC(=O)N1CCCC(CCC(=O)NCc2ccc(F)c(F)c2)C1 (centres unmarked) | 13.9

Row | Compound | hERG current change (%, negative = inhibition) at 1uM [%]
70 | COc1ccccc1N1CCN(C2CCCN(C(=O)c3ccnc4ccc(C)cc34)C2)CC1 (centres unmarked) | -2.36
71 | COc1ccccc1OCC(=O)NCCCN1CCOCC1 | 13.3
72 | COc1ccccc1OCCCCNCCO | 9.29
73 | O=C(CC1OC(=O)c2ccccc21)Nc1ccccc1N1CCOCC1 (centres unmarked) | -1.46
74 | CC(C)Cn1cc(C(=O)NCC2CCCO2)c2c3ccccc3n(C)c2c1=O (centres unmarked) | 0.636
75 | COc1ccccc1N(CC(O)Cn1c2ccccc2c2ccccc21)S(=O)(=O)c1ccccc1 (centres unmarked) | 4.52
76 | COc1ccc(-n2c(=O)c3c(C)c(C)sc3n(Cc3cccc(F)c3)c2=O)c(OC)c1 | 16.3
77 | CC1CCCN(Cc2nc(Cc3ccccc3Cl)no2)C1 (centres unmarked) | 12.7
78 | CC12CC3(C)CC(C)(C1)CC(C(=O)NC1=NCCS1)(C2)C3 | -3.49
79 | COc1ccccc1C(=O)C1CCCN(C(=O)c2ccccn2)C1 (centres unmarked) | 15.4
80 | COc1ccc(C2C(C#N)=C(C)NC3=C2S(=O)(=O)c2ccccc23)cc1 (centres unmarked) | -2.41
81 | O=C(NCc1ccc(F)cc1)c1ccc(N2CCOCC2)c([N+](=O)[O-])c1 | -9.75
82 | CCOC(=O)c1c(CN2CCCCC2)oc2ccc(OC)cc12.Cl | -19.6
83 | O=C(COC(=O)CNS(=O)(=O)c1ccc(Br)cc1Cl)Nc1ccc(N2CCOCC2)cc1 | 19.5
84 | CN1N=C(C(=O)N2CCc3c([nH]c4ccccc34)C2c2ccccc2Cl)CCC1=O (centres unmarked) | -5.74
85 | COc1cc(C(=O)Nc2ccncc2)c([N+](=O)[O-])cc1OC | 11.6
86 | Nc1nnn(-c2ccccc2)c1-c1ccccc1 | 13
87 | O=C(NCc1ccccc1)c1cccnc1Sc1ccccc1 | 16.1
88 | CC(C)OC(=O)c1ccc(N2CCN(c3ccc(F)cc3)CC2)nc1 | 7.03
89 | Cc1cccc(Nc2nnc(SC/C(O)=C(\C#N)c3nc4ccccc4[nH]3)s2)c1 | 12.8
